± gives the standard deviation. In all, about 3,700 sequences were measured (“pre-steady-state target cleavage rate”: median about 0.02, highest 2% from about 0.23 on). This is a selection; strong and weak results do not stand in their true shares.
tested on: MILI (PIWIL2) piRISC loaded with Kctd7 piRNA (26 nt); test: pre-steady-state target cleavage rate (min^-1); MIWI and MILI are mouse PIWI proteins and EfPiwi is from a freshwater sponge; tags in brackets are library labels; higher = faster piRNA-guided slicing of the target; conditions: guide: Kctd7 piRNA 5'p-UGUUAAUCUCUCAGAGAAGGUGACAG; auxiliary factor: 500 nM mouse GTSF1
How it was run: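 The pre-steady-state cleavage rate was calculated from a burst-and-steady-state fit. Data came from Cleave-'n-Seq, in which […] transcribed, DNA-blocked target RNA library was mixed with 1 nM active affinity-purified piRISC carrying one synthetic guide, with or without 500 nM GTSF1 partner protein, in HEPES–potassium acetate buffer at 33 °C for 0–8 or 0–960 min. Uncleaved targets were sequenced and normalised to depth and to weakly complementary targets, three trials were pooled, and k3 was capped at 0.0001 min^-1.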
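Note: 1 nM active piRISC with 0.1 nM target library at 33 °C single turnover.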

| Sequence | pre-steady-state target cleavage rate |
| --- | --- |
| UAGUGUUCACCUUCUCUGAGAGAUUAACA | 0.177 ± 0.019 |
| UAGUGACUCACCGUUCUCUGAGAGAUUAACA | 0.134 ± 0.0075 |
| UAGUGACAGUGCUUCUCUGUGAGAUUAUCA | 0.00569 ± 0.0016 |
| UAGUGUGUCACCUUCUCUGAGACAUUAACA | 0.146 ± 0.028 |
| UAGUGUCUCACCUUCUCUGAGAGAAUAACA | 0.0906 ± 0.022 |
| UAGUGAGUCACCAACUCUGAGAGAUUAAGA | 0.0573 ± 0.012 |
| UAGUGACAGUGCUUCUUGAGAGAUUAACA | 0.00591 ± 0.0035 |
| UAGUGAGUCACCUUCUCACAGAGAUUAACA | 0.0181 ± 0.004 |
| UAGUGUGUGACCUUCUCUGAGAGAUUAACA | 0.172 ± 0.014 |
| UAGUGACUACACCUUCUCUGAGAGAUUAACA | 0.149 ± 0.0088 |
| UAGUGUGUCGCCUUCUCUGAGAGAUUAACA | 0.212 ± 0.018 |
| UAGUGACACACCUUCACUGAGAGAUAAACA | 0.0691 ± 0.018 |
| UAGUGACAGACCUUCUCUGAGAGAUUAAAA | 0.0931 ± 0.029 |
| UAGUGACAGUGCUUGUCUGUGAGAUUAACA | 0.0125 ± 0.003 |
| UAGUGACAGUGGUACUCUGACAGAUUAACA | < 0.0001 |
| UAGUGACACACCUUGCUCUGAGAGAUUAACA | 0.0895 ± 0.018 |
| UAGUGUGUCACCUUCUCUGAGAGAUUAUCA | 0.154 ± 0.023 |
| UAGUGACACACGCUUCUCUGAGAGAUUAACA | 0.1 ± 0.017 |
| UAGUGACAGUCCUUGUCUGAGACAUUAACA | 0.0149 ± 0.0049 |
| UAGUGGGUCACCUUCUCUGAGAGAUUAACA | 0.175 ± 0.01 |
| UAGUGUGUCACCUUCUCUGAGCAGAUUAACA | 0.012 ± 0.0069 |
| UAGUGACAGUGGUUCUGUGAGUGAUUAACA | 0.00342 ± 0.0022 |
| UAGUGACAGUCGUUCACUGAGAGAUUAACA | 0.0106 ± 0.0026 |
| UAGUGACUCACCUUCUCUGAGAGUAUAUGA | 0.00757 ± 0.0043 |

| Sequence | pre-steady-state target cleavage rate |
| --- | --- |
| UAGUGACAGUGGAAGUCUGAAGAGAUUAACA | < 0.0001 |
| UAGUGACAGUGGAUCUCUGAGAGAUUUAACA | < 0.0001 |
| UAGUCUGUGACCUUCUCUGACAGAUUAACA | 0.0291 ± 0.0039 |
| UAGUGACAGACGUUCUCUGAGAGAAUAACA | 0.00496 ± 0.0031 |
| UAGUGACUCACCUUCUCUGAGAGAUUCACA | 0.314 ± 0.091 |
| UAGUGACACAGGUUCUCUGAGAGAUUAAGA | 0.00675 ± 0.0025 |
| UAGUGACAGACCUUCUCAGAGACAUUAACA | 0.0257 ± 0.0085 |
| UAGUGUGACACCUUCACUGAGAGAUUAACA | 0.142 ± 0.018 |
| UAGUGACAGUGCUUCUGUGAGAGAUAAACA | 0.00917 ± 0.0028 |
| UAGUGUGUGACCUUGUCUGAGAGAUUAACA | 0.0744 ± 0.014 |
| UAGUGACACACCUUCUGCUGAGAGAUUAACA | 0.0166 ± 0.0089 |
| UAGUGAGUCACCUUCUCUGAGAGAUGUAACA | 0.312 ± 0.047 |
| UAGUGAGUCACGUUCUCUGUGAGAUUAACA | 0.0376 ± 0.0033 |
| UAGUCUGGCACCUUCUCUGAGAGAUUAACA | 0.165 ± 0.04 |
| UAGUGUGUCACCGUCUCUGAGAGAUUAACA | 0.113 ± 0.012 |
| UAGUGAGUCAGCUUCUCUGAGAGAUAAACA | 0.0977 ± 0.026 |
| UAGUGACACACCUUCAGAGAGAGAUUUUGA | 0.00547 ± 0.0054 |
| UAGUCAGUCACCUUCUCUCAGAGAUUAACA | 0.0669 ± 0.011 |
| UAGUGACUCACCUUCUCUGCGAGAUUAACA | 0.0816 ± 0.0094 |
| UAGUCUGUCACCUACUCUGAGAGAUUAUGA | 0.0285 ± 0.0078 |
| UAGUCUGUCACCUUCUCUGAGAGAAUAACA | 0.193 ± 0.039 |
| UAGUGACAGACGUUCUCUGAGACAUUAACA | 0.00396 ± 0.0022 |
| UAGUGACAGUGCUUCUCAGAGAGAUUAACA | 0.00894 ± 0.0031 |
| UAGUGACACACCUUCUCUGAGAGAUUGACA | 0.154 ± 0.024 |

| Sequence | pre-steady-state target cleavage rate |
| --- | --- |
| UAGUCUGUCACCUUCUCUGAGAUGAUUAACA | 0.12 ± 0.0075 |
| UAGUGAGUCAGCUUCUCUGAGAGUUUAACA | 0.101 ± 0.024 |
| UAGUGACUCACCUCUCUGAGAGAUUAACA | 0.0549 ± 0.0098 |
| UAGUGUGUCACCUUGUCUGAGAGUUUAACA | 0.0303 ± 0.014 |
| UAGUGAGUCACCUUCUGUGAGAGAAUAACA | 0.025 ± 0.0073 |
| UAGUGUGUCACCUUCCUGAGAGAUUAACA | 0.133 ± 0.046 |
| UAGUGACAGUGGAACUCUGAGUCUAAUUGA [g10:g16:cont:t1A] | 0.0578 ± 0.032 |
| UAGUGACACACCUUCUCUGAGAAAUUAACA | 0.219 ± 0.035 |
| UAGUGAGUCACCUUCUCUGAGAGCUUAACA | 0.155 ± 0.026 |
| UAGUGACAGUGCUUCUCGGAGAGAUUAACA | 0.00937 ± 0.0027 |
| UAGUGUGUGACGUUCUCUGAGAGAUUAACA | 0.133 ± 0.012 |
| UAGUGUGUCCCCUUCUCUGAGAGAUUAACA | 0.218 ± 0.018 |
| UAGUGAGUCACCAUCACUGAGAGAUUAACA | 0.176 ± 0.014 |
| UAGUGAGUCACCUACUCUGAGAGAUUAACA | 0.215 ± 0.018 |
| UAGUCACUCACCUUCUCUGAGAGAUUAUGA | 0.0149 ± 0.0073 |
| UAGUGAGUCACCUUAUCUGAGAGAUUAACA | 0.119 ± 0.015 |
| UAGUCACACACCUUCUCUGAGAGAUUUUGA | 0.0392 ± 0.015 |
| UAGUGAGUCACCGUCUCUGAGAGAUUAACA | 0.151 ± 0.012 |
| UAGUGACAGUCCUUCUCUGACAGAAUAACA | < 0.0001 |
| UAGUGAGUCACCUUCUCUGAGUGUUUAACA | 0.0119 ± 0.006 |
| UAGUCUGUCAGCUUCUCUGUGAGAUUAACA | 0.0393 ± 0.0027 |
| UAGUGAGUCACCUUCUCUGAGAGAUAAAGA | 0.00919 ± 0.0072 |
| UAGUGACAGUGAUUCUCUGAGAGAUUAACA | 0.00524 ± 0.0023 |
| UAGUGACACACCUUCUCUGAGAGAUUAACU [g2:g22:cont:t1U] | 0.13 ± 0.014 |
